± gives the standard deviation of the averaged measurements. The list shows a part of the results.
Tested on: PfAP2-EXP AP2 domain (GST-tagged)
Assay: gcPBM binding intensity (ln(normalized median fluorescence intensity)); higher = stronger DNA binding
Procedure, shortened: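 GST-fused DNA-binding domains of P. falciparum, expressed in E. coli, were applied at about 25 μg on average for 1 h to an Agilent 4 × 180k array of primer-extended double-stranded 36-bp intergenic genomic probes and negative controls. Binding intensity is the highest Masliner-normalised natural-log median intensity across replicate spots of either probe orientation, measured with Alexa488 anti-GST antibody and a 488 nm scan.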

Sequence	gcPBM binding intensity (ln)
TAATAATAGTACTGACATCGAAATATTATTAAAAAT [CACACA_negctrl_site255]	8.3 ± 0.39
AAAATATATACACAAACATGCATATAATAAATAAAT [TGCATGCA_site711]	8.71 ± 0.38
ATATTTCTGTGTGGATGTACATTATTAGCAGGCTTT [XGTACX_site6496]	8.8 ± 0.4
CAAAATAATAATAAAAGTACTAACATATTTATGAAA [XGTACX_site6078]	8.47 ± 0.42
TTCTTTTTATTTATATTTTCCCCTCTCTATAGCTAT [XGTACX_negctrl_site102]	8.84 ± 0.49
ATAATTCAAAAAAACACACAAATTACAAAATAAACT [CACACA_site6264]	8.77 ± 0.38
AAGGTGGGAAAAAATAGTACACAACAAAAATGTATG [XGTACX_site8741]	8.75 ± 0.35
ACATATAAACTGTATACACACAAATATTGCATATAT [CACACA_site6804]	8.88 ± 0.42
ATATATCTATATGTGTGTACATATAAGTATTTATAT [XGTACX_site5333]	8.4 ± 0.3
AGAAAAGAGAAATGGGCACACACACCCATATTATAT [CACACA_site8433]	8.29 ± 0.38
TACATTCTAAATATTACACACTTTATAAAATAATAA [CACACA_site4069]	8.26 ± 0.39
ATATATATAAATATATGTACTAATATATACATATAT [XGTACX_site2289]	8.22 ± 0.092
TTGTATCATATATTATGTACATATTTATTTATTATC [XGTACX_site7723]	8.45 ± 0.29
ATATTATATCTAATCGTGCACAACTGTACATTTGTC	9.13 ± 0.092
CCCATGTAATATTAAACACACACTCATATAACACAA [CACACA_site7906]	8.81 ± 0.83
ATATTTAAATATATTTATATATATAAAAAAAAATAT [GTGCAC_negctrl_site312]	8.56 ± 0.39
CAAAATATTTAAAAAAGTACTTAAAATAAATTCAAA [XGTACX_site6866]	8.48 ± 0.38
AATATAAATAAAAACACACACACACGGATATTTATA [CACACA_site7134]	9.04 ± 0.39
CACACAACTATCAAGGTGCTAAAATGAAATAATATA [GTGCAC_site9871]	8.7 ± 0.35
AAAAAAATAAAAAATATATAAATAATTAATACATGT [GTGCAC_negctrl_site633]	8.31 ± 0.36
AAACCAAGGCACAATAATTAAATAAATAAAATCATG [GTGCAC_negctrl_site574]	8.4 ± 0.58
ATATAATTTTTCAAGTGTACTTTTTTTTTTTAACAT [XGTACX_site3050]	8.57 ± 0.47
ATTTATATATATATAGGTACACATATTTATATATAA [XGTACX_site8487]	8.23 ± 0.2

Sequence	gcPBM binding intensity (ln)
TCATTCATATGTTACACACACACACCCACATAAAAA [CACACA_site3245]	8.78 ± 0.47
CATAATTATGCAATTGCACACAACTATCATTTTTTT [CACACA_site2997]	9.06 ± 0.27
TCACTAAACCATTAGAGTACTTGACATATAATGAGC [XGTACX_site3272]	8.29 ± 0.2
TATATATAAAAAACATGTACACAAATTTACATACAT [XGTACX_site4777]	8.54 ± 0.26
AAGAGTTAAAAAAATACACACATATATATTTTTTTA [CACACA_site1980]	8.34 ± 0.41
TTTTTGTATGCTTCCCGACTACATTATGCCATAAAT [CACACA_negctrl_site136]	9.12 ± 0.47
GATTATATATGAAAATGTACAAATATATATATATAT [XGTACX_site5963]	9.96 ± 0.28
AAAAAAAAAAAAAAAAAAAAAAAAAAATACATATGT [XGTACX_negctrl_site95]	9.15 ± 0.042
TAAAAGGATGCATATACACACATATAGATTTATATA [CACACA_site7336]	8.32 ± 0.47
TTTTTTTTGTATTTTTCACACACACCGAAGTAAACA [CACACA_site8575]	8.71 ± 0.43
ATATAATCTGAGTGCACACAAATAAATAAACATACA [CACACA_site422]	8.95 ± 0.25
TTAAATTCGTCATTTTAAAATAATACAAAAGTTCAA [CACACA_negctrl_site19]	8.37 ± 0.43
AGTTGCATACATTGAAGTACAGAACATTTATATATA [XGTACX_site240]	8.57 ± 0.4
TTTTTCCTTATTAATACACACATTCACCTTTTAAAT [CACACA_site479]	8.79 ± 0.4
ATTTATAAAATATAATTACATTTTTAAATAATAAAA [GTGCAC_negctrl_site43]	8.13 ± 0.35
CTTATGTGCATACCTACACACTTACCTATATTTATA [CACACA_site7411]	8.72 ± 0.17
TTACGATTTAAAATGGGTACATATATATGAAAAAAA [XGTACX_site545]	8.68 ± 0.4
TCAAAGTAAAACAGGACATGCACAGAACATCCTGCC [TGCATGCA_site2]	8.72 ± 0.35
TAAAGAAAAATATAAAGTACAAAAATAAAAAAAATA [XGTACX_site8226]	8.68 ± 0.52
TACACAAAGTTACATACACACTAATATTTACACCAT [CACACA_site6602]	8.64 ± 0.36
AAAAAAAAAACATACACACACATATAGATTTATATG [CACACA_site6847]	8.46 ± 0.42
GTATTTATGTGTTTGGTGCAAGGGAGAATTTTTTTT	8.83 ± 0.34

— the supplement of paper PMC11417369
